Reference: patent US20180346594A1

Assays:
[1] = molecular target: 16C3 antigen (human colorectal and pancreatic carcinoma-associated antigen, CPAA, recognized by the 16C3 antibody) (human); assay: FACS, LS174T cells, CHO supernatant
[2] = molecular target: 16C3 antigen (human colorectal and pancreatic carcinoma-associated antigen, CPAA, recognized by the 16C3 antibody) (human); assay: FACS, CFPAC-1 cells, CHO supernatant

B1: H16C3-Abb* (optimized humanized 16C3 antibody) (antibody, from a related filing, V domains shown, part only)
VH: QVQLVQSGAEVKKPGASVKVSCKASGYTFTDYAMHWVRQAPGQRLEWMGLISTYSGDTKYNQNFQGRVTMTVDKSASTAYMELSSLRSEDTAVYYCARGDYSGSRYWFAYWGQGTLVTVSS
VL: DIQMTQSPSSLSASVGDRVTITCQASENIYGALNWYQRKPGKSPKLLIYGASNLATGMPSRFSGSGSGTDYTFTISSLQPEDIATYYCQQVLSSPYTFGGGTKLEIKR
- % binding to LS174T cells [1]: 54.4, 51.1, 55.2, 53.8, 56.2% [lines of one column]
- mfi [1]: 374, 299, 402, 333, 407 mfi [lines of one column]
- % binding to CFPAC-1 cells [2]: 98.6 (2×), 97.7, 98.7, 99.1% [lines of one column]
- mfi [2]: 411, 299, 486, 371, 447 mfi [lines of one column]

Not every entry of the source has a single result; some have several. They are shown here; other results are not. An entry can have further records. Values given together read as repeated measurements on other runs, samples or individuals; one of them may be the mean. Counts like (3×) count equal records among those shown.
